Laboratory results: the supplement of paper PMC9446081
The campaign covered roughly 39,000 compounds. About 220 (0.56%) showed activity. The list shows a part of the results.

Each compound was assayed on Escherichia coli K-12 BW25113 (assay: relative growth (OD600 normalised to plate interquartile mean) (fraction); higher = less growth inhibition, active = 0.2 or less). Conditions: 50 µM; LB; incubation time: overnight (16-24 h).
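Also: static incubation at 37 °C against the wild-type strain, values averaged over two biological replicates.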

Compound | relative growth
O=C(CN1CCOCC1)NCC[C@H]1CC[C@@H](NC(=O)c2ccccc2F)[C@H](CO)O1 | inactive: 1.02
C[C@@H]1CCCCO[C@@H](CN(C)Cc2ccncc2)[C@H](C)CN([C@@H](C)CO)C(=O)c2cc(NC(=O)CCC(F)(F)F)ccc2O1 | inactive: 1.09
C[C@@H]1CN([C@@H](C)CO)C(=O)c2cc(NS(=O)(=O)c3ccccc3)ccc2O[C@@H]1CN(C)CC1CC1 | inactive: 1.03
CCOC(=O)c1cc2c(=O)n(C)c(=O)n(C)c2[nH]c1=O | inactive: 1
CC(=O)C1(O)CCC2C3CC(C)C4=CC(=O)C=CC4(C)C3(F)C(O)CC21C (centres undefined) | inactive: 1.08
C[C@H](CO)N1C[C@H](C)[C@H](CN(C)Cc2ccc(C(=O)O)cc2)Oc2ccc(NC(=O)Cn3cnnn3)cc2C1=O | inactive: 0.998
C=CC(=O)Nc1ccccc1[C@@H](CCc1ccc(OC)c(OC)c1)OC(=O)[C@@H]1CCCCN1C(=O)C(=O)C(C)(C)CC | inactive: 1.02
CN(C)CCCNC(=O)C[C@@H]1CC[C@H]2[C@@H](COC[C@H](O)CN2S(=O)(=O)c2ccccc2)O1 | inactive: 1.02
COc1ccc2c3c(n(c2c1)C)[C@H](CO)N(C[C@]13CCN(CC1)C(=O)c1ccccc1F)C(=O)Nc1ccccc1F | inactive: 0.987
C[C@@H]1CN([C@H](C)CO)C(=O)c2cc(NS(=O)(=O)c3ccc(Cl)cc3)ccc2O[C@@H](C)CCCCO[C@H]1CN(C)C(=O)Nc1ccc2c(c1)OCO2 | inactive: 0.985
CN(C)CCCNC(=O)C[C@H]1CC[C@@H]2[C@@H](COc3ccc(NC(=O)c4ccccc4F)cc3C(=O)N2C)O1 | inactive: 1.01
C[C@H](CO)N1C[C@H](C)[C@H](CN(C)C(=O)Nc2cccc3ccccc23)Oc2ccc(NC(=O)C3CCCCC3)cc2CC1=O | inactive: 0.994
C[C@@H]1CCCCO[C@@H](CN(C)C(=O)C2CCCCC2)[C@H](C)CN([C@@H](C)CO)C(=O)c2cc(NC(=O)C3CCCCC3)ccc2O1 | inactive: 0.99
Nc1ncnc2c1ncn2[C@H]1CCCO1 | inactive: 1
NC(=O)[C@@]1(CCS(=O)(=O)c2ccccc2)N=C(c2ccc(OCCCO)cc2)O[C@H]1c1ccccc1 | inactive: 0.996
C[C@@H]1CN([C@H](C)CO)C(=O)c2cccc(NC(=O)Nc3ccc(C(F)(F)F)cc3)c2O[C@@H]1CN(C)Cc1ccc(Cl)c(Cl)c1 | inactive: 1.03
C[C@H]1CCCCO[C@H](CN(C)Cc2ccc(C(F)(F)F)cc2)[C@@H](C)CN([C@@H](C)CO)C(=O)c2cc(NC(=O)Nc3ccc(C(F)(F)F)cc3)ccc2O1 | inactive: 0.987
C[C@@H]1CCCCO[C@@H](CN(C)Cc2ccc(C(=O)O)cc2)[C@H](C)CN([C@@H](C)CO)C(=O)c2cc(NS(=O)(=O)c3ccc(Cl)cc3)ccc2O1 | inactive: 1.01
Cc1noc(C)c1S(=O)(=O)N(C)C[C@H]1OCCCC[C@H](C)Oc2ccc(N(C)C)cc2C(=O)N([C@@H](C)CO)C[C@@H]1C | inactive: 0.926
COc1ccc(S(=O)(=O)N2C[C@@H](O)COC[C@H]3O[C@@H](CC(=O)NCCCN4CCOCC4)CC[C@@H]32)cc1 | inactive: 1.04

Compound | relative growth
COc1ccc(NC(=O)Nc2ccc3c(c2)C(=O)N([C@H](C)CO)C[C@@H](C)[C@H](CN(C)C(=O)Nc2ccc(C(F)(F)F)cc2)OCCCC[C@@H](C)O3)cc1 | inactive: 1.07
C[C@@H]1CCCCO[C@@H](CN(C)C(=O)CCC(F)(F)F)[C@H](C)CN([C@@H](C)CO)C(=O)c2cc(NC(=O)Nc3ccccc3)ccc2O1 | inactive: 0.987
Cc1nccnc1N1CCCCC1.O=S(=O)(O)O | inactive: 1.03
Cc1noc(C)c1NC(=O)Nc1ccc2c(c1)C(=O)N([C@H](C)CO)C[C@H](C)[C@H](CN(C)C(=O)Nc1ccc3c(c1)OCO3)OCCCC[C@@H](C)O2 | inactive: 1
C[C@@H]1CN([C@@H](C)CO)S(=O)(=O)c2ccc(-c3ccccc3F)cc2O[C@@H]1CN(C)Cc1cncnc1 | inactive: 0.934
CC(=O)OC[C@H]1O[C@@](COC(C)=O)(O[C@H]2O[C@H](COC(C)=O)[C@@H](OC(C)=O)[C@H](OC(C)=O)[C@H]2OC(C)=O)[C@@H](OC(C)=O)[C@@H]1OC(C)=O | inactive: 0.979
COc1cccc(NC(=O)N[C@H]2C=C[C@@H](CC(=O)N3CCOCC3)O[C@H]2CO)c1 | inactive: 0.897
CO[C@H]1CN(C)C(=O)c2ccc(NS(C)(=O)=O)cc2OC[C@H](C)N(C(=O)CN(C)C)C[C@H]1C | inactive: 0.998
COCCOC(=O)N1C(=O)[C@@]2(c3cc(C#CC4=CCCCC4)ccc31)[C@H](C(=O)N1CCN(c3ncccn3)CC1)[C@H]1C(=O)O[C@H](c3ccccc3)[C@H](c3ccccc3)N1[C@@H]2c1ccc(O)cc1 | inactive: 1.02
NC(=O)c1ccc[n+](C2OC(COP(=O)([O-])OP(=O)(O)OCC3OC(n4cnc5c(N)ncnc54)C(O)C3O)C(O)C2O)c1 (centres undefined) | inactive: 1.07
CN1CCN(C2=Nc3cc(Cl)ccc3Nc3ccccc32)CC1 | inactive: 1.07
Cc1noc(C)c1S(=O)(=O)Nc1ccc2c(c1)C(=O)N([C@H](C)CO)C[C@H](C)[C@H](CN(C)C)OCCCC[C@@H](C)O2 | inactive: 0.981
Nc1nc(=O)[nH]cc1NC(=O)c1ccccc1 | inactive: 0.917
C[C@H]1CCCCO[C@H](CN(C)Cc2ccncc2)[C@@H](C)CN([C@@H](C)CO)C(=O)c2cc(NC(=O)Nc3ccccc3)ccc2O1 | inactive: 0.988
C[C@H]1CN([C@@H](C)CO)S(=O)(=O)c2ccc(C#Cc3ccccc3)cc2O[C@H]1CN(C)C(=O)Cc1ccccn1 | inactive: 0.994
C[C@H](CO)N1C[C@H](C)[C@H](CN(C)S(=O)(=O)c2ccccc2)Oc2ccc(NC(=O)CCN3CCOCC3)cc2CC1=O | inactive: 1.02
C[C@@H]1CN([C@@H](C)CO)C(=O)c2cc(NC(=O)Cn3cnnn3)ccc2O[C@H]1CN(C)Cc1ccc(C(=O)Nc2ccccc2N)cc1 | inactive: 0.993
CC(C)NC(=O)Nc1ccc2c(c1)C(=O)N([C@H](C)CO)C[C@H](C)[C@H](CN(C)C(=O)Nc1ccc(C(F)(F)F)cc1)OCCCC[C@@H](C)O2 | inactive: 1.02
C[C@H]1CN([C@@H](C)CO)C(=O)c2cc(NC(=O)c3ccncc3)ccc2O[C@@H]1CN(C)Cc1ccc(C(=O)O)cc1 | inactive: 0.992
COc1ccc(cc1)CN1C[C@]2(CCN(CC2)S(=O)(=O)c2cn(cn2)C)c2c([nH]c3cc(ccc23)OC)[C@H]1CO | inactive: 1.02

Compound | relative growth
C[C@@H]1CCCCO[C@@H](CN(C)C(=O)CCC(F)(F)F)[C@H](C)CN([C@H](C)CO)C(=O)c2cc(NS(=O)(=O)c3cccs3)ccc2O1 | inactive: 0.951
C[C@@H]1CN([C@@H](C)CO)C(=O)c2cc(NC(=O)CCCCCC(=O)Nc3ccccc3N)ccc2O[C@H]1CN(C)S(=O)(=O)c1cn(C)cn1 | inactive: 0.999
O=C(N[C@@H](c1ccccc1)c1ccc2ccccc2n1)C1CCN(CCOc2ccc(Cl)cc2)CC1 | inactive: 0.976
C[C@@H]1CCCCO[C@@H](CN(C)Cc2ccc(C(F)(F)F)cc2)[C@H](C)CN([C@H](C)CO)C(=O)c2cc(NC(=O)c3ccncc3)ccc2O1 | inactive: 0.982
C[C@@H]1CN([C@H](C)CO)C(=O)c2cccc(NC(=O)Nc3ccc4c(c3)OCO4)c2O[C@H]1CN(C)Cc1ccc(Oc2ccccc2)cc1 | inactive: 1.01
OC[C@@H]1CC[C@@H]2O[C@H](CCc3ccc(C#Cc4ccccc4)cc3)[C@@H](n3cc(-c4ccccc4)nn3)C[C@@H]2O1 | inactive: 1.02
C[C@H](CO)N1C[C@H](C)[C@H](CN(C)C(=O)N[C@H](C)c2ccccc2)OCc2ccccc2-c2c(n(C)c3ccccc23)C1=O | inactive: 0.978
C[C@H]1CN([C@@H](C)CO)C(=O)c2cccc(NC(=O)Nc3ccccc3)c2O[C@@H]1CN(C)C(=O)Nc1cccc2ccccc12 | inactive: 1.01
CCCCCCCCCCCCCCCC(=O)NCCO | inactive: 1.07
OCCC12CC3CC(CC(C3)C1)C2 | inactive: 1.01
C[C@@H]1CN([C@H](C)CO)C(=O)c2cccc(NC(=O)C3CCOCC3)c2O[C@@H]1CN(C)Cc1ccc2c(c1)OCO2 | inactive: 0.977
C[C@@H]1CN([C@H](C)CO)C(=O)c2cccc(NC(=O)Nc3cccc4ccccc34)c2O[C@H]1CN(C)C(=O)Nc1ccc(F)cc1 | inactive: 0.999
C[C@H]1CN([C@@H](C)CO)C(=O)c2cc(NS(=O)(=O)c3cn(C)cn3)ccc2O[C@@H]1CN(C)S(=O)(=O)c1ccc(F)cc1 | inactive: 1.02
CN1CCc2nc(C(=O)NC3CC(C(=O)N(C)C)CCC3NC(=O)C(=O)Nc3ccc(Cl)cn3)sc2C1.Cc1ccc(S(=O)(=O)O)cc1.O (centres undefined) | inactive: 1.01
C[C@H]1CN([C@@H](C)CO)C(=O)c2cc(NC(=O)Nc3cccc4ccccc34)ccc2O[C@@H]1CN(C)S(=O)(=O)c1cccs1 | inactive: 1
COc1ccc(S(=O)(=O)Nc2ccc3c(c2)CC(=O)N([C@@H](C)CO)C[C@H](C)[C@@H](CN(C)S(=O)(=O)c2cccs2)O3)cc1 | inactive: 0.989
C[C@H]1CN([C@@H](C)CO)C(=O)c2cc(NC(=O)C3CC3)ccc2O[C@@H]1CN(C)S(=O)(=O)c1ccc(Cl)cc1 | inactive: 0.989
O=C(C[C@H]1C=C[C@@H](NC(=O)CN2CCOCC2)[C@H](CO)O1)NC1CCCCC1 | inactive: 1.01
Cc1c(C(=O)OCC(=O)N(CC(C)C)c2c(N)n(Cc3ccccc3)c(=O)[nH]c2=O)oc2ccccc12 | inactive: 1.02
